The chains are these.
B1: LINE1-mini (parent)
chain: GGCAGAGCUCAACACAGCGUGGCAAAGUGGCUGUGGCUAGACUGCC

The source gives no read counts; variants with many changes may rest on few reads.

The variants in the data set derive from B1. Briefly: self-cleavage, relative activity (ratio to wild type); higher = more cleavage; in vitro, sequencing; the parent is a self-cleaving ribozyme.
GGCAGAGCUCAACACAGCAUGGCAAAGUGACUGUGGCUAGACCGCC [G19A G30A U43C]: the self-cleavage came to 0.71. For GGCAGAGCUCAACACAGCAUGGCAAAGUGGCGGUGUCUAGACUGCC [G19A U32G G36U] the value was 0.11; for GGCAGAGCUCAACACAGCUUGACAAAGUGGGUGUGGCUAGACUGCC [G19U G22A C31G], 0.03; for GGCAGAGCUCAACACAGCUUGGCAAAAUGCCUGUUGCUAGAGUGCC [G19U G27A G30C G35U C42G], 0.07. For GGCAGAGCUCAACACAGCAGGGCCAAAUGGAUGUGUCUAGACUGCC [G19A U20G A24C G27A C31A G36U] the value was 0.02; for GGCAGAGCUCAACACAGCCUGCUAAAGUGGCUGUGGCUAGACUGCC [G19C G22C C23U], 0.3. On to GGCAGAGCUCAACACAGCCUGGCAAAGUGGCUGUGGUCAGACUGCC [G19C C37U U38C], for which the self-cleavage was determined as 0.01.

Consider GGCAGAGCUCAACACAGCUUCGUAAAGUCGCUGUGGCUAGACUACC [G19U G21C C23U G29C G44A], for which the self-cleavage was 0.14. To GGCAGAGCUCAACACAGCCUGGCAAACUGGCUGAGGCUAGACUGCC [G19C G27C U34A] belongs 0.23; to GGCAGAGCUCAACACAGCCUGUCAAAGUGGCUGUGGCUAGACUGGA [G19C G22U C45G C46A], 0.07.

Consider GGCAGAGCUCAACACAGCCUGGCAUAGUGGCUGUGGAUAGAUUGCC [G19C A25U C37A C42U], for which the self-cleavage was 0.02. To GGCAGAGCUCAACACAGCUUGGCAAACUGGCUGUGGCUAGACUUCC [G19U G27C G44U] belongs 0.15; to GGCAGAGCUCAACACAGCCUGGUAAAGUGGCUAUGGCUAGUCUGCC [G19C C23U G33A A41U], 0.45; to GGCAGAGCUCAACACAGCAUGGCAAAGAGGCUGUGGCUAGACUGCG [G19A U28A C46G], 0.14. In the case of GGCAGAGCUCAACACAGCCUGGUAAGGUGGCUAUGGCUUGACUGCC [G19C C23U A26G G33A A39U], the self-cleavage is 0.04. With GGCAGAGCUCAACACAGCCUGACAAAGUGGCUGUGGCUAGGCUGCC [G19C G22A A41G], the self-cleavage turned out to be 0.04.

For the variant GGCAGAGCUCAACACAGCUUGGCAAGGUGGCUGUGGCUAAACGGGC [G19U A26G G40A U43G C45G], the self-cleavage amounted to 0.03. For GGCAGAGCUCAACACAGCCUGGCAAAGUGGCUGUGGCUAGCAUGCC [G19C A41C C42A] the value was 0.02; for GGCAGAGCUCAACACAGCCUGGGAAAGUGGCUGGGGUUAGACUGCC [G19C C23G U34G C37U], 0.04; for GGCAGAGCUCAACACAGCCUGGCAAAGUGGCUGUUGGUAGACUGCC [G19C G35U C37G], 0.02.

Turning to GGCAGAGCUCAACACAGCAUGGCAAAGUGGCAGUGUCUAAACUGCC [G19A U32A G36U G40A], the self-cleavage was found to be 0.04.

For the variant GGCAGAGCUCAACACAGCUUGGGAAAGUGGCUGUGGCCAGAUUGCC [G19U C23G U38C C42U], the self-cleavage was determined as 0.42. For GGCAGAGCUCAACACAGCUUGGUAAAAUGGCUGUGUCUAGACUGCC [G19U C23U G27A G36U] the value was 0.07. Take GGCAGAGCUCAACACAGCCUGGCAAAGUGGCUGUGGCUAGGCUGCG [G19C A41G C46G]: the self-cleavage is 0.05. To GGCAGAGCUCAACACAGCUUCGCAAAGUGGCUGUGGCCAGACUGCC [G19U G21C U38C] belongs 0.22; to GGCAGAGCUCAACACAGCUUGGCAAAAUGGCAGUGGCUAGACUGCG [G19U G27A U32A C46G], 0.03; to GGCAGAGCUCAACACAGCCUGAUAAAGUGGCUGUGACUAGACUGCC [G19C G22A C23U G36A], 0.02. To GGCAGAGCUCAACACAGCUUUGCAAAUUGAAUGUGGCUAGACUGCC [G19U G21U G27U G30A C31A] belongs 0.08; to GGCAGAGCUCAACACAGCUUGGCAAAGUGGUUGUGGCUACACUGCC [G19U C31U G40C], 0.02; to GGCAGAGCUCAACACAGCUUGCAAAAGUGGCUGUGGCUAAACUGCC [G19U G22C C23A G40A], 0.1. Take GGCAGAGCUCAACACAGCCUGGCUAAGUGGCUGUAGCUAGACUGCC [G19C A24U G35A]: the self-cleavage is 0.11.

For the variant GGCAGAGCUCAACACAGCCUUGCAUAGUGGCUGCGGCUAGACUGCC [G19C G21U A25U U34C], the self-cleavage stood at 0.23.

Regarding GGCAGAGCUCAACACAGCUUGGCAAAGUGGAUGUGACUAGACUGCC [G19U C31A G36A], the self-cleavage stood at 0.07. For GGCAGAGCUCAACACAGCAAGGAAAAGUUGCUGUGGCUAGACUCCC [G19A U20A C23A G29U G44C] the value was 0.07; for GGCAGAGCUCAACACAGCCUGGCAAAGCGGCCAUGGCUAGACUGCC [G19C U28C U32C G33A], 0.12. Turning to GGCAGAGCUCAACACAGCCUGGCAAAGUGUCAGUGGCUAGCCUGCC [G19C G30U U32A A41C], the self-cleavage was found to be 0.03. To GGCAGAGCUCAACACAGCAUGGCAAAGUGGCUGUGGCGGGACUGCA [G19A U38G A39G C46A] belongs 0.01. For GGCAGAGCUCAACACAGCCUUGCAACGUGGCUCUGGCUAGACUGCC [G19C G21U A26C G33C] the value was 0.08. For GGCAGAGCUCAACACAGCUUGGCACAGGGGCUGUGGCUAGACUGCC [G19U A25C U28G] the value was 0.5.

Consider GGCAGAGCUCAACACAGCUUGGCCAAGUAGCUGUGGCUAGACUGCC [G19U A24C G29A], for which the self-cleavage worked out at 0.43. As for GGCAGAGCUCAACACAGCUUGGCAAACUGGCUUUGGCUAGACUGCC [G19U G27C G33U], the self-cleavage was found to be 0.05. For GGCAGAGCUCAACACAGCAUGGCAAAGUGGCUGUGGCUAAACUGAC [G19A G40A C45A] the value was 0.08. To GGCAGAGCUCAACACAGCUUGGCGAAGGGGCUGUGGCCAGACUGCC [G19U A24G U28G U38C] belongs 0.28; to GGCAGAGCUCAACACAGCCUGGCAACAUGGCUGUGGCUAGACUGCC [G19C A26C G27A], 0.12. To GGCAGAGCUCAACACAGCCUGGCAUAGUGGCUGUGACUAGACUGCU [G19C A25U G36A C46U] belongs 0.07. For GGCAGAGCUCAACACAGCCUGGUAGAGUGGCUCUCGCUAGACUGCC [G19C C23U A25G G33C G35C], the self-cleavage was determined as 0.03. To GGCAGAGCUCAACACAGCCUGGCAAAGUGGCUGUGUCUAGACAGCC [G19C G36U U43A] belongs 0.01; to GGCAGAGCUCAACACAGCCUGGCACAGUGGCUGUGGCCAGACUGCC [G19C A25C U38C], 0.09. For GGCAGAGCUCAACACAGCUUAGCAAAGUGCCUGUGGCUAGACUGCG [G19U G21A G30C C46G] the value was 0.11.

For the variant GGCAGAGCUCAACACAGCAUGGCAAAGUGUCUGUGGCUAGCCUGCC [G19A G30U A41C], the self-cleavage was determined as 0.04. In the case of GGCAGAGCUCAACACAGCAUGGCAAAGUGGCUAUGGCUAGAUUGCC [G19A G33A C42U], the self-cleavage amounted to 0.05.

For the variant GGCAGAGCUCAACACAGCCUGGCAAAUUGGCUGUGGCUAUAGUGCC [G19C G27U G40U C42G], the self-cleavage was determined as 0.02.

Consider GGCAGAGCUCAACACAGCCUGGCAAAGUGGCUGAGGCUAGAAUACC [G19C U34A C42A G44A], for which the self-cleavage came out at 0.33. To GGCAGAGCUCAACACAGCCAGGCAAAGUGGCUGUGACUAGACUUCC [G19C U20A G36A G44U] belongs 0.05; to GGCAGAGCUCAACACAGCAUGGCAAAGAGGCUGUGGGUAGACUGCC [G19A U28A C37G], 0.04; to GGCAGAGCUCAACACAGCCUGGCAAAGUGGCUGUGGCUAGCUUCCC [G19C A41C C42U G44C], 0.01.

Source of the values: the RNAGym collection of RNA variant scans (doi:10.7554/elife.90254).
